Data published in the supplement of paper PMC3334620.
Over roughly 33,000 sequences, “E-score (-0.5 to 0.5)” has its median near -0.017; the highest 2% begin near 0.3. This is one part of the list.

Molecular target: T1, Sut1 (UniProt P53032)
T1 sequence: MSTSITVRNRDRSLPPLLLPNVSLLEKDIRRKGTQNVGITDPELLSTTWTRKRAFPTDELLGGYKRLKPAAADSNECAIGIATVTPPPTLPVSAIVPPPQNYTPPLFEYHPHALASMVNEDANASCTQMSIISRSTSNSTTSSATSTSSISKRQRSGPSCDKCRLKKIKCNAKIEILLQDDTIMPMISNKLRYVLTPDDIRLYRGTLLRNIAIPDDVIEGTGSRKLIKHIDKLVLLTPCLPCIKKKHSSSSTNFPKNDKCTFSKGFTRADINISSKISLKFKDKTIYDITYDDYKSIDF
Assay: PBM E-score (8-mer binding enrichment) (E-score (-0.5 to 0.5)); higher = stronger / more preferred TF binding; most listed sequences are background and not binding sites
Conditions: protein concentration: 200 nM; construct: GST-full length
Method in brief: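 Universal all-10-mer Agilent arrays, double-stranded by primer extension on fresh or once-stripped slides, were probed with about 100-200 nM GST-tagged yeast transcription factors made by PURExpress. Fluorescent anti-GST detected bound protein, and masliner normalised the scans. E-scores from the Universal PBM Analysis Suite were given to each ungapped eight-base word pooled with its reverse complement.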

| Sequence | PBM E-score |
| --- | --- |
| ACAATTTG | 0.0489 |
| AAACGGCG | 0.0378 |
| CACTAAAC | 0.139 |
| AGTGTAAT | 0.137 |
| CCGGGCGA | 0.0467 |
| AAGCAGGG | -0.206 |
| GCATAATA | 0.265 |
| AGGACGGA | 0.0778 |
| AGCGTCGC | -0.0164 |
| ATGACACG | 0.129 |
| AAACCGAG | 0.0662 |
| AGGGCAAA | -0.079 |
| ATGTGTTC | 0.0971 |
| GCGCAAAC | -0.0496 |
| GCTGCAAC | -0.0226 |
| AGCGAGGA | -0.0182 |
| CCGGGCGC | -0.01 |
| CATACGGA | 0.303 |
| CATGAAAG | 0.0767 |
| CACATGAG | -0.239 |
| ATGCCCGC | -0.0337 |
| ACTTAAAC | 0.241 |
| TAGACGCA | 0.00598 |
| CGAGCGCA | -0.0152 |
| CAACTACC | -0.0109 |

| Sequence | PBM E-score |
| --- | --- |
| GCCAGCAC | -0.0518 |
| GTTAGGAA | 0.14 |
| TCGACGAA | -0.0884 |
| CGCACCCG | -0.201 |
| TCCGGAAA | 0.411 |
| ACTATCTC | 0.0966 |
| CGTATGTC | -0.0263 |
| AAGTTAAC | 0.142 |
| CAACTCTC | 0.0111 |
| CCAATCCC | -0.0503 |
| ACCAGTCA | -0.101 |
| CACCATAC | -0.135 |
| GTTGACGA | -0.00109 |
| ATAAATTA | 0.326 |
| GTTTCTAA | 0.132 |
| CAGTGCAA | -0.063 |
| GTTTACTA | 0.0744 |
| GGCGTTTA | -0.128 |
| TACACCCA | 0.036 |
| CAAATTTG | -0.0607 |
| ATGTTGAC | 0.0309 |
| CAGGGGGA | -0.351 |
| GAGTCTAC | -0.00601 |
| TTAATGAA | 0.26 |
| CTATCAAC | 0.208 |

| Sequence | PBM E-score |
| --- | --- |
| GCTTCCCA | -0.179 |
| AAAGCTTC | -0.0109 |
| ATATCGAT | -0.0127 |
| CTATGCTA | 0.0296 |
| GGACATCC | 0.0309 |
| CCTACACG | -0.346 |
| CCTTGCGC | -0.163 |
| CCAAAGGG | -0.121 |
| ACAGCAGA | -0.172 |
| ACACTGTC | -0.206 |
| ACGAAGAT | 0.0518 |
| ACATCTTA | 0.0365 |
| AATTTCAC | 0.188 |
| ACTCGTCT | 0.0453 |
| GCGGAGCA | 0.152 |
| AAGCACTC | 0.0626 |
| CGCATAGC | -0.188 |
| AAGGTCAG | -0.175 |
| AGTCCGCG | 0.435 |
| CGAGGGAA | -0.175 |
| CTATTGGC | -0.227 |
| GGGAACAA | 0.0455 |
| GAGTGAGC | -0.0108 |
| TCGGGGAA | 0.168 |
| CCCACGAC | -0.236 |

| Sequence | PBM E-score |
| --- | --- |
| CCAACTCC | 0.387 |
| AATTGAGC | 0.0759 |
| CGGGTTAG | -0.125 |
| AAGGCTAG | 0.0543 |
| ACCCTGTA | -0.14 |
| CGTTGGCC | -0.239 |
| ATCATGTC | 0.103 |
| ATAATAGG | 0.0771 |
| ACTGTACT | 0.029 |
| CAGAGGGG | -0.339 |
| CTCTATTA | 0.11 |
| CGTTACAG | -0.132 |
| AGGGTTCA | -0.146 |
| GTTACACA | -0.2 |
| ATCGTTAA | 0.17 |
| CTATTTTA | 0.249 |
| GTAATGTA | 0.116 |
| CCTGGTAC | -0.0792 |
| AGTGGTCC | 0.0454 |
| CCAACAAG | -0.0968 |
| ATGTTTTG | 0.0309 |
| CAGTACGG | -0.0271 |
| AGGCTACC | -0.244 |
| CGCTATAC | -0.0585 |
| GCTTGCCC | -0.291 |

| Sequence | PBM E-score |
| --- | --- |
| GCGTCAGC | -0.0582 |
| GTACCGTA | 0.0369 |
| ACTGACCT | -0.159 |
| CAAACGTA | 0.00159 |
| CTCTATCA | 0.0296 |
| GATTGGGC | -0.0149 |
| GGAAAACA | 0.164 |
| CGATAAAC | -0.077 |
| GTCTCAGA | -0.0872 |
| ATAACGAC | 0.213 |
| CCAACGAC | -0.14 |
| ACCAGACC | -0.167 |
| GATTAATA | 0.154 |
| TAAAACAA | 0.207 |
| GGGGAATA | -0.0656 |
| AGAATCCA | 0.00183 |
| ACCTCCGG | 0.322 |
| GATTAGTA | 0.0528 |
| CGACTCGC | -0.174 |
| AAGATATT | 0.226 |
| GTATGTTA | 0.196 |
| GAGAATTA | 0.157 |
| ACGGTGTC | -0.131 |
| CTCTCCAG | -0.321 |
| GACCGCTC | -0.0564 |

| Sequence | PBM E-score |
| --- | --- |
| AGCTCCCC | -0.265 |
| ACATATGT | 0.0268 |
| ACAGCGGC | -0.307 |
| CGATCTGA | 0.047 |
| CCCTACAG | -0.249 |
| GATTCAGA | 0.115 |
| ACGCTTCA | -0.199 |
| ATCTTCAC | -0.0358 |
| CCGGCTTA | 0.0147 |
| AAACCCGT | -0.24 |
| AGTAGGTG | -0.0911 |
| TCGGGACA | -0.117 |
| CATCTATC | -0.0822 |
| GACCCTGA | -0.239 |
| AAACCGCA | -0.221 |
| CCCGGTTC | -0.158 |
| CACGTTCA | -0.0298 |
| GCGCGATA | -0.0175 |
| AGGACAAA | 0.12 |
| TGCAGAAA | 0.0257 |
| GTCTACGA | -0.126 |
| AGTTGTCC | 0.117 |
| ATTGAGTC | 0.0829 |
| GTCTAACA | -0.0519 |
| CGGAACGA | 0.226 |

| Sequence | PBM E-score |
| --- | --- |
| AAATTGCA | -0.0262 |
| GCGTGGGA | -0.13 |
| CCAAACAC | -0.00595 |
| AATACCAG | -0.0474 |
| AACCGCTG | -0.175 |
| CACCCCCA | -0.251 |
| CGAAAGGA | 0.0906 |
| AAAGCACG | -0.152 |
| GCATTCTA | -0.00067 |
| AAAGCGAG | 0.068 |
| AAGACCTG | -0.27 |
| TGCGGGAA | 0.03 |
| AGTTATCC | 0.09 |
| CTAGCTGA | -0.122 |
| AAGAGAAA | 0.0578 |
| AGTAAGAA | 0.132 |
| GAAATTGA | 0.225 |
| GCTCAACC | -0.096 |
| ACGTGTCC | -0.179 |
| ATGGCGAG | -0.165 |
| CAGCCGTA | -0.153 |
| ACGTACGA | -0.0612 |
| AGTATGGA | 0.11 |
| CACGATGA | -0.0806 |
| AGCCCGTG | -0.224 |

| Sequence | PBM E-score |
| --- | --- |
| GTTAAAGA | 0.0511 |
| AATCAGGC | 0.0629 |
| CAGTAGCA | -0.115 |
| GATTGAGC | 0.0614 |
| ACCCTCCT | -0.215 |
| GGTGCAAA | 0.0509 |
| ACCAGACG | -0.183 |
| ATACCAGA | -0.00832 |
| GGGCCGGA | 0.206 |
| ACGAGGCC | -0.169 |
| GCTTTCAC | -0.0493 |
| ACTTCCAC | -0.0347 |
| ATGGTGTG | 0.0974 |
| AACGGGGG | -0.0848 |
| CCGAAGCG | -0.0599 |
| AAGGGAAA | -0.0893 |
| CCTGTATC | 0.0452 |
| ATCCAACA | 0.158 |
| GCCGAGTA | -0.198 |
| AGGTACCA | -0.121 |
| AGATCAAC | -0.02 |
| ATGTTGCG | -0.00964 |
| CATACTAG | 0.209 |
| ATCTAAGC | -0.182 |
| ATCTACCC | -0.0367 |

| Sequence | PBM E-score |
| --- | --- |
| CCATTACG | -0.165 |
| GCCCTCCA | -0.204 |
| ACCGGTGA | -0.0486 |
| CACCCCCG | -0.191 |
| CCCACACG | -0.0275 |
| AGGTTTTG | 0.158 |
| ACAACTGA | 0.0687 |
| ACAACTCT | 0.0085 |
| ACTGTGCG | -0.0488 |
| ACCTCCGA | 0.177 |
| ATTGTGTG | 0.0465 |
| GGATGGCA | 0.0887 |
| TACGTATA | 0.0853 |
| AAGGGACA | -0.167 |
| GGCTTACA | 0.0643 |
| AGAGTATC | 0.162 |
| GGGGCGAA | -0.148 |
| GAAGCTAC | -0.136 |
| AAATACCA | 0.123 |
